Experimental data taken from the supplement of paper PMC3334620.
Whole data set: some 33,000 sequences, median “E-score (-0.5 to 0.5)” near -0.035, cut for the highest 2% near 0.35. This is one part of the list.

What follows are sequences tested against T1, Pdr3 (UniProt P33200) (assay: PBM E-score (8-mer binding enrichment) (E-score (-0.5 to 0.5)); higher = stronger / more preferred TF binding; most listed sequences are background and not binding sites). Conditions: protein concentration: 200 nM; construct: GST-full length.
T1 sequence: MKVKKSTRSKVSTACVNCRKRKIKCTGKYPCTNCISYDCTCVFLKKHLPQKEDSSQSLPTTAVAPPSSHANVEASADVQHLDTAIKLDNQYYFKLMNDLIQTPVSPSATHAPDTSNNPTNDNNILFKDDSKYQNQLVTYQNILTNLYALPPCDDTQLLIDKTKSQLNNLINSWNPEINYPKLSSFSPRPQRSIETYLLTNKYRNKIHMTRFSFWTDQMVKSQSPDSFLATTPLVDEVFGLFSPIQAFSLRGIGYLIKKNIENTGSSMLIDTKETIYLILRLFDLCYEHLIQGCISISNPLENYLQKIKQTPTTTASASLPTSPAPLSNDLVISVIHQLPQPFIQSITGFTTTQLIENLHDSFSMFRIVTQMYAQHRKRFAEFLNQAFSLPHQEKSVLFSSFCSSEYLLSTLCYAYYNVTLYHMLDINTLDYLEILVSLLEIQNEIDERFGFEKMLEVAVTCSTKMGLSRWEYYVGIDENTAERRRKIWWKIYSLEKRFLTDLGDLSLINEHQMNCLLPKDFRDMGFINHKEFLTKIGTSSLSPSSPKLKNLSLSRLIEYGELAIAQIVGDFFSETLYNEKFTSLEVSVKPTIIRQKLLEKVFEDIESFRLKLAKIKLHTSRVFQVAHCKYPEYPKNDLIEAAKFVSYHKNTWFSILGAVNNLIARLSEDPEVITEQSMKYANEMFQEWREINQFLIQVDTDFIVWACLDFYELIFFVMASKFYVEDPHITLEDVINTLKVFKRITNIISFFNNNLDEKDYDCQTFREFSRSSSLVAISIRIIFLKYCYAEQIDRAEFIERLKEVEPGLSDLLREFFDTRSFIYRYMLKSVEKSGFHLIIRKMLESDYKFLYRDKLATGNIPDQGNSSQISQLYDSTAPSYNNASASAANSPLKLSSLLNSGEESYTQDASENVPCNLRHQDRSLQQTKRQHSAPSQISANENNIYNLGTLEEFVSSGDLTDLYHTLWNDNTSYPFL
Method in brief: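 Universal all-10-mer Agilent arrays, double-stranded by primer extension on fresh or once-stripped slides, were probed with about 100-200 nM GST-tagged yeast transcription factors made by PURExpress. Fluorescent anti-GST detected bound protein, and masliner normalised the scans. E-scores from the Universal PBM Analysis Suite were given to each ungapped eight-base word pooled with its reverse complement.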

Sequence	PBM E-score
ATATCCAC	0.0606
CGTACCTC	-0.0181
ATTCGGCG	0.0891
AGGCGTAT	-0.154
GGGTATGA	0.0218
CCAAAAGA	-0.151
AGGCGAGC	-0.1
CACCGACG	0.00596
GTTAGCAA	-0.147
CCCATAAG	-0.00269
ACCCTAGG	-0.219
AGCCTCCT	-0.225
AATGGCTA	-0.082
TGGACCAA	0.0375
ATAGACAC	-0.099
CCAACCGG	0.205
AGTTCCTC	-0.0381
AAATCAGC	0.0841
GAACAATC	0.114
CATGCAGG	-0.0784
CTTCGCCC	0.0168
AGTGATGC	-0.186
GTTGAATA	-0.0132
AGATACAC	-0.0369
ACCGGGCT	0.0718

Sequence	PBM E-score
GCCGATCA	0.0413
GATTCGAA	0.191
ACTAATTA	-0.042
CACCATCC	-0.0229
CATCACAC	0.00885
AGATTGCT	-0.164
GTCACGGA	0.415
CAGATTGG	-0.133
ATATGAAC	-0.134
ACCGGCAT	0.23
CCAGTGAC	-0.214
CACAAATG	-0.314
ACTAGACG	-0.154
GCGGACCC	0.336
GTACGGCA	0.0259
CAACGGAA	0.47
AAGAAGTA	0.0061
AAGATACA	-0.114
ATATGGGG	-0.00732
AGAGAGCG	-0.00106
CACCAAGC	-0.0642
CAGTCCCC	-0.173
ATGGGGGC	-0.247
GGTCTGTA	0.164
AAAGGCGC	-0.0133

Sequence	PBM E-score
TCAAGTCA	-0.0922
AACCAGGC	0.0204
TCGTGAGA	0.0213
CTCGCACC	-0.0701
ACGTTTTC	0.0552
AAGAATTC	-0.0469
GTCTGAAC	-0.146
AAGGCGAA	-0.0355
AGGCAACC	-0.0525
ATTAAAAA	0.0695
GTCCGGCA	0.295
AATTGCGC	0.262
CATGGTAA	-0.119
ACGTATAC	-0.104
CTTTCCAC	0.0771
GGCTAGTA	0.0699
AGTTAGGA	-0.165
ACTTCCCG	0.291
ACCCTCGT	-0.0667
CGTGGGCA	-0.167
CGTATCGA	-0.144
CCACTCGA	-0.0185
AACATTGA	-0.126
CGTGAGAA	-0.0443
CGCGGGAC	0.444

Sequence	PBM E-score
CATGGCAC	0.141
CACTTCCG	0.336
AGGAATGA	-0.0139
GTGCGACA	-0.0394
AGTTAGTC	-0.0833
ACGCAAGT	-0.255
AACGAGTG	-0.207
TAACAGGA	-0.0727
ATACTCCG	0.371
GCCGATAC	0.123
CGAAATGC	0.0935
CACGCATC	0.0112
GCTAGTGA	-0.12
CCGGTTAG	0.23
CGGCGCAG	0.0101
ACCCTCAT	-0.145
AGTACCAC	-0.167
CTCCAAGA	-0.238
CTGGAGTC	-0.147
CTACCGAA	-0.0817
CGCCTAAC	-0.081
CAACAATA	0.0309
ACCCCCCT	-0.387
TACTGTCA	-0.0263
AGGATTCA	-0.108

Sequence	PBM E-score
GCTGGGTA	-0.0815
AACAGTAT	-0.148
ACTTATGG	0.01
CCATTGAG	-0.019
CCGATTTC	0.193
AACTTCTC	-0.154
CCCCGCCC	0.227
ATACCAAA	-0.0555
ATGCACTC	-0.0296
ACAGATAG	-0.231
ATTTCGTA	-0.0611
GGAGTTTA	0.0289
AACGTTCC	0.299
CTTGAGAA	-0.384
AAGTAAGT	0.0143
AACGGCAG	0.162
ACTTATAC	0.0789
ATTGTGTC	0.00304
CAATTCTC	-0.138
GATCTCGC	0.0504
CTGCCGCC	-0.0369
GTTGCCTA	0.0329
CAAGTTGA	0.00197
GACCATCA	-0.0483
AAAGTTAA	-0.0793

Sequence	PBM E-score
TACTATGA	-0.0367
AGTCGGAC	0.117
ATACCGCG	0.352
ATTTATTG	-0.0869
ATAGAAAG	-0.0611
GTTGGACA	-0.18
GAGCGCTC	-0.055
CCATTATA	0.159
ATGGTTTA	-0.00271
CTCGTTGC	0.0672
TACTGGGA	0.00434
TGTGTTAA	-0.176
AGCGAGGG	-0.318
AGTGCGAC	0.081
CGAAAGAA	0.0334
ACCCGAGG	0.163
CGTCTTGA	-0.0672
AACAGAAA	-0.145
ACGATGGC	-0.0785
GTACAACA	-0.0511
GTACACAA	-0.104
CTATGACA	-0.14
GCAGGAAC	-0.0174
ATACATGC	-0.0713
CGCGTTCA	0.0334

Sequence	PBM E-score
CATGCCGG	0.36
ATCAAAGG	-0.173
ATGAGACC	0.0286
CAAGGGCA	-0.0651
ACGCCATC	0.0524
CCACCGAA	-0.144
ATTCATGA	-0.13
AATTATCC	0.128
ACATGGTA	-0.0365
TACATTAA	-0.00906
AGATTTAG	-0.0838
CTCTTGTC	-0.032
ATGGCCAA	-0.0844
GTGTAATA	0.0133
GCGGGCCA	0.0261
AGTAAATC	-0.0807
GGATAAGA	0.0362
AACACGCC	-0.0215
GAAATGTC	-0.0586
AAGATTGA	-0.131
GAATAGTA	-0.0424
CGTATCCA	-0.0807
